Results are given in words; binding and its absence hold for the method and conditions named. In cells and extracts the contact can be indirect. Some binding calls cover weakened binding; strength is not graded here. For some of these results: Sequences can lack the tags named with a protein.
Experiments:
[1] = target: T1, GST fusion of human NDP52 (HEK293T) (human) (UniProt Q13137); assay: pull-down; GST beads on NP-40 lysates of HEK293T cells co-transfected with GST or GST-NDP52 and Flag-tagged envelope constructs, 4 °C for 8 h, Western blot
T1 sequence: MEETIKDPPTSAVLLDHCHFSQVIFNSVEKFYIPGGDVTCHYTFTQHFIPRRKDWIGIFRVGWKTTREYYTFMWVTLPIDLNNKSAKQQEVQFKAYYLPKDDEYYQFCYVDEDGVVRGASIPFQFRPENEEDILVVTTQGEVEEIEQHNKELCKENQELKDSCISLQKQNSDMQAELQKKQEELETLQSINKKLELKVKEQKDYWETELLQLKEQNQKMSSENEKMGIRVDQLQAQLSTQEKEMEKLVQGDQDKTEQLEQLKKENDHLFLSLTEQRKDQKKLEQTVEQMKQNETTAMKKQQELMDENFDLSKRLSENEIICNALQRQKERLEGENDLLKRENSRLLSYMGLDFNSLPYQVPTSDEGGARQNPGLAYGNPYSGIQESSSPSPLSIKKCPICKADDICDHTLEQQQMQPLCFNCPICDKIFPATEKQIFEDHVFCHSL

[2] = target: T2, endogenous NDP52 (Huh7 cells) (human (endogenous in Huh7)) (UniProt Q13137); assay: co-IP
T2 sequence: T1 sequence

[3] = target: T3, Flag-tagged NDP52 full length (UniProt Q13137); assay: co-IP; Flag precipitation from lysates of HEK293T cells co-transfected with Flag-tagged NDP52 full length or truncations and HA-tagged M; Western blot
T3 sequence: T1 sequence

[4] = target: T4, endogenous NDP52 (HepAD38 cells) (human (endogenous in HepAD38)) (UniProt Q13137); assay: co-IP; anti-NDP52 antibody on lysates of HepAD38 cells without doxycycline (replicating HBV); Western blot
T4 sequence: T1 sequence

| Substance | binding [1] | binding [2] | binding [4] | further results |
| --- | --- | --- | --- | --- |
| 3xFlag-tagged HBV L envelope protein (HEK293T) (from UniProt P03138 1-389) | binds |  |  |  |
| 3xFlag-tagged HBV L envelope protein (Huh7) (from UniProt P03138 1-389) |  | binds |  |  |
| 3xFlag-tagged HBV M envelope protein (HEK293T) (from UniProt P03138-2 1-281) | binds |  |  |  |
| 3xFlag-tagged HBV M envelope protein (Huh7) (from UniProt P03138-2 1-281) |  | binds |  |  |
| 3xFlag-tagged HBV S envelope protein (HEK293T) (from UniProt P03138-3 1-226) | no binding |  |  |  |
| 3xFlag-tagged HBV S envelope protein (Huh7) (from UniProt P03138-3 1-226) |  | no binding |  |  |
| HA-tagged M envelope protein (from UniProt P03138-2 1-281) |  |  |  | binding [3]: binds |
| HBV L envelope protein expressed in HepAD38 cells (from UniProt P03138 1-389) |  |  | binds |  |
| HBV M envelope protein expressed in HepAD38 cells (from UniProt P03138-2 1-281) |  |  | binds |  |
| HBV S envelope protein expressed in HepAD38 cells (from UniProt P03138-3 1-226) |  |  | no binding |  |
